Laboratory results as given in PubChem BioAssay AID624296 (National Center for Advancing Translational Sciences (NCATS), 2012).
In all, about 350,000 compounds went through this assay and about 9,900 (2.8%) were called active. Inconclusive results, whose numbers are uncertain, are shown with a selection of clear calls. The call rests on the fitted dose curve; in most records, active means well fitted activation curve with a large enough effect; inconclusive means small, poorly fitted or top-dose-only effect; inactive means no such curve, though single readings can be large or run the other way. No potency is given beside an inconclusive call; the fits are too rough.

assay: A quantitative high throughput screen for small molecules that induce DNA re-replication in MCF 10a normal breast cells.; further: nearly all actives have a fitted effect of over 50% in size; conditions: MCF 10A DNA re-replication, Hoechst nuclear intensity, 48 h; series mostly up to 46.1 µM
Potency means the concentration at half of the fitted maximal effect; tags describe the fitted curve by direction and shape.

Row | SMILES | Potency
1 | Cc1ccc(C)c(N(CC(=O)NC(C)(C)C)C(=O)CCC(=O)Nc2nccs2)c1 | inconclusive [activator, single point]
2 | CCOC(=O)c1ccc2[nH]c3c(c2c1)CCCC3C(=O)OCC (stereo unspecified) | inconclusive [activator, partial curve, poor fit]
3 | CC(=O)c1ccc(N2CCN(C(=O)c3ccc(-c4ccccc4)cc3)CC2)cc1 | inconclusive [activator, partial curve, poor fit]
4 | CCOc1cc(Cl)c(S(=O)(=O)NCc2ccccn2)cc1Cl | inactive
5 | N#C/C(=C\c1c(N2CCCCCC2)nc2ccccn2c1=O)C(=O)NCc1ccco1 | inconclusive [activator, full curve, poor fit]
6 | COc1ccccc1/C=N/OC(=O)c1ccc(C)cc1 | inactive
7 | CC(NC(=O)CCCn1cc([N+](=O)[O-])cn1)c1ccccc1 (stereo unspecified) | inconclusive [activator, partial curve, poor fit]
8 | O=C1CC(c2cccs2)Cc2nc(NCC3CCCO3)ncc21 (stereo unspecified) | inactive
9 | Cc1ccc(C)c(C(=O)CN2C(=O)c3ccccc3S2(=O)=O)c1 | inconclusive [activator, full curve]
10 | c1ccc(-n2cc(CN3CCCC(CN4CCCC4)C3)c(-c3ccc4c(c3)OCO4)n2)cc1 (stereo unspecified) | inconclusive [activator, single point]
11 | CCOc1ccccc1Nc1cc(C)c2cccc(C)c2n1 | inconclusive [activator, single point]
12 | CCCCCCc1cc2cc(C(=O)NCc3ccccc3)c(=N)oc2cc1O | active: 7.31 µM
13 | O=C(Oc1ccc(NC2=C(Cl)C(=O)c3ccccc3C2=O)cc1)c1ccc([N+](=O)[O-])cc1 | inactive
14 | O=C(Cc1ccccc1)N[C@@H]1c2ccccc2CC[C@@H]1OCc1ccccc1 | inconclusive [activator, single point]
15 | O=C(OCc1cnc(Cl)s1)c1ccccc1Cl | inactive
16 | C/C(CC(=O)Nc1ccc(Cl)cc1Cl)=N\NC(N)=S | inconclusive [activator, single point]
17 | COc1ccc([N+](=O)[O-])cc1C1NN=C(c2ccccc2O)S1 (stereo unspecified) | inconclusive [activator, single point]
18 | CC(=O)N1CCc2cc(S(=O)(=O)NCCC(=O)NC3CCCCCC3)ccc21 | inactive
19 | O=C(NC12CC3CC(CC(C3)C1)C2)c1cccnc1Cl | inconclusive [activator, single point]
20 | N#Cc1c(N2CCCC(O)C2)nc(N)c2c(N)nc3c(c12)CC(=O)N3C12CC3CC(CC(C3)C1)C2 (stereo unspecified) | inconclusive [activator, partial curve, poor fit]
21 | COc1ccc(S(=O)(=O)N(C)C)cc1NC(=O)COC(=O)CC1CCCC1 | inconclusive [activator, single point]
22 | CCOc1ccc(N2C(=O)CC(Cc3ccccc3OC)C2=O)cc1 (stereo unspecified) | inconclusive [activator, single point]
23 | CC(NCC1COc2ccccc2O1)C(=O)NCc1ccccc1 (stereo unspecified) | inconclusive [activator, partial curve, poor fit]

Row | SMILES | Potency
24 | COCCN(C(=O)C(C)C)c1nnc(-c2ccc(C(C)(C)C)cc2)s1 | inconclusive [activator, partial curve]
25 | O=C1c2ccccc2-c2nc3ccccc3nc21 | inactive
26 | COc1ccccc1-c1nn(Cc2ccccc2)cc1C(=O)NCC(c1ccco1)N1CCCC1 (stereo unspecified) | inconclusive [activator, full curve, poor fit]
27 | Cc1onc(C(=O)N2CCC(C(N)=O)CC2)c1-c1ccccc1Cl | inconclusive [activator, single point]
28 | COC(=O)c1ccc(CN2CCc3ccc(NC(=O)c4ccncc4)cc3C2)cc1 | inconclusive [activator, partial curve, poor fit]
29 | Cc1ccsc1/C=C/C1=Cc2c(sc(NC(=O)CSc3n[nH]c(N)n3)c2C#N)C(C)(C)C1 | inconclusive [activator, full curve, poor fit]
30 | COc1ccc(NC(=O)CN(C)C(=O)CCc2c[nH]c3ccccc23)cc1 | inactive
31 | Cc1cccc(/C=N/n2c(C3CCCCC3)n[nH]c2=S)c1 | inactive
32 | CC1=NN(C(=O)CSCc2ccccc2)C(O)(c2ccccc2)C1 (stereo unspecified) | inconclusive [activator, partial curve, poor fit]
33 | Cc1nc2sc(C#N)c(N)c2c2c1CCCC2 | inactive
34 | COc1ccc(Cn2c(=N)c(C(=O)NCC3CCCO3)cc3c(=O)n4ccccc4nc32)cc1 (stereo unspecified) | active: 14.6 µM
35 | C#CCOc1ccc(/C=C2/C(=O)ON=C2C)cc1Br | inconclusive [activator, single point]
36 | COc1ccc(C(=O)O)cc1S(=O)(=O)N1CCN(Cc2ccc3c(c2)OCO3)CC1 | inactive
37 | c1ccc(-c2ncc(-c3ccn[nH]3)s2)cc1 | inactive
38 | Cc1csc(NC(=O)c2c(-c3c(Cl)cccc3Cl)noc2C)n1 | inactive
39 | Cc1cc(C)nc(-n2nc(C)cc2NC(=O)CN2CCCC2)n1 | inactive
40 | CC(=O)c1sc(-c2ccccc2)cc1NS(=O)(=O)c1ccc(C)cc1 | active: 11.6 µM
41 | O=C1C(c2cc(=O)c3ccccc3[nH]2)=C(O)c2ccccc21 | inconclusive [activator, single point]
42 | CCN(CC)S(=O)(=O)c1ccc(NN=C2CCN(C)CC2)c([N+](=O)[O-])c1 | inactive
43 | C=CCn1c(-c2csc3c2CCC(C)C3)n[nH]c1=S (stereo unspecified) | inconclusive [activator, partial curve]
44 | O=C1NC(=Nc2ccc3ccccc3c2)S/C1=C/c1ccco1 | inconclusive [activator, partial curve, poor fit]
45 | CSc1ccccc1NC(=O)COC(=O)Cn1cc(C(F)(F)F)ccc1=O | inactive
46 | Cc1ccc(NC(=O)CN(C)Cc2c(O)ccc3ccccc23)cc1 | inactive
